Experimental findings from the supplement of paper PMC6660600, “Odorant Inhibition in Mosquito Olfaction” (iScience, 2019) are described below.

SMILES strings stand for the structures. Counter-ions that a name gives are not always drawn. The list shows a part of the results. Single values are uncertain, as repeats are few or missing.

The subject of this experiment is CquiOR32-CquiOrco. The experiment can be described thus: current response class (signed ordinal: positive = inward/excitatory, negative = outward/inhibitory) (ordinal score (-3..3)); higher = stronger inward (excitatory) current. Particulars: 1 mM; holding potential (mV): -80. Here is the method:
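Xenopus oocytes co-expressing Culex quinquefasciatus CquiOR32 with CquiOrco were challenged by two-electrode voltage clamp (holding -80 mV) with a panel of about 200 odorants at 1 mM source dose (2 s stimulus). The response was scored qualitatively: + to +++ for weak to strong inward currents, x to xxx for weak to strong outward (inhibitory, reverse) currents, +/- and x/- for very weak currents (S/N 2-5), and - for no response. Scale: negative = stronger reverse/inhibitory current.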
In the case of `O=COCCc1ccccc1` [2-phenethyl formate], the current response class is inactive: 0.

As to `CCOC(C)=O` [ethyl acetate], the current response class is inactive: 0.

Regarding `C=CCc1ccc(OC(C)=O)c(OC)c1` [eugenyl acetate], the current response class is inactive: 0.

For the compound `CCCCCCCCCCCCCCCCCC(=O)OCC` [ethyl stearate], the current response class is inactive: 0.

For `CC(C)CCO` [3-methyl-1-butanol], the current response class was inactive: 0.

As for `CCC/C=C/C(=O)O` [(E)-2-hexenoic acid], the current response class was inactive: 0.

For the compound `CC(=O)C(C)O` (stereo not given) [3-hydroxy-2-butanone], the current response class was inactive: 0.

`CC1=CCC(=C(C)C)CC1` [terpinolene]: the current response class was active: -1.

Turning to `CCCCCCOC(C)=O` [hexyl acetate], the current response class is inactive: 0.

Regarding `CC1CCC(O)CC1` (stereo not given) [4-methylcyclohexanol], the current response class was active: 1.

On to `Cc1cccc(C(C)(C)C)c1O` [2-tert-butyl-6-methyl-phenol], for which the current response class was active: -1.

With `OC/C=C/c1ccccc1` [cinnamyl alcohol], the current response class was inactive: 0.

With `CCC(C)NC(=O)Cc1ccccc1` (stereo not given) [N-sec-butyl-2-phenyl-acetamide], the current response class was active: -1.

As to `CCCCCCC=O` [heptanal], the current response class is inactive: 0.

Take `CC1=CC[C@@](O)(C(C)C)CC1` [terpinen-4-ol]: the current response class was inactive: 0.

For `OCc1ccccc1` [benzyl alcohol], the current response class is inactive: 0.

With `CCCCCC(C)=O` [2-heptanone], the current response class is active: 0.5.

Consider `CCCCCCCCCCCC=O` [1-dodecanal], for which the current response class was inactive: 0.

In the case of `CCC/C=C/COC(C)=O` [(E)-2-hexenyl acetate], the current response class is inactive: 0.

In the case of `CCCCC(C)O` (stereo not given) [2-hexanol], the current response class is inactive: 0.

As to `CC(C)C(=O)Oc1ccccc1` [phenyl isobutyrate], the current response class is inactive: 0.

Regarding `CCCCCCC1CCC(=O)O1` (stereo not given) [γ-decalactone], the current response class is inactive: 0.

Turning to `CC(=O)/C=C/C1=C(C)CCCC1(C)C` [β-ionone], the current response class was inactive: 0.

Consider `CCC/C=C/C=O` [(E)-2-hexenal], for which the current response class is inactive: 0.

`CC/C=C\CCOC(C)=O` [(Z)-3-hexenyl acetate]: the current response class is active: 1.

Consider `CN(C)C` [trimethylamine], for which the current response class was inactive: 0.

As to `Cc1cc(C)cc(O)c1` [3,5-dimethylphenol], the current response class is inactive: 0.

For the compound `CC(O)C(=O)O` (racemic) [(±)-lactic acid], the current response class was inactive: 0.

For `CCCCCCCCOC(C)=O` [octyl acetate], the current response class is inactive: 0.

For `Oc1ncnc2[nH]ncc12` [allopurinol], the current response class is inactive: 0.

In the case of `CC(C)[C@@H]1CC[C@@H](C)CC1=O` [(-)-menthone], the current response class is inactive: 0.

On to `CCCCCC=O` [hexanal], for which the current response class was inactive: 0.

Take `CCCCCCCCCCCCCCCCO` [1-hexadecanol]: the current response class is inactive: 0.

With `COc1ccccc1O` [guaiacol], the current response class is active: 2.

On to `CC(=O)c1cccs1` [2-acetylthiophene], for which the current response class is active: 1.

For `Cc1ccc(C)c(O)c1` [2,5-dimethylphenol], the current response class is active: 1.

In the case of `CC/C=C\C/C=C\C/C=C\CCCCCCCC(=O)OCC` [ethyl linolenate], the current response class was active: -1.

Regarding `c1ccc(Oc2ccccc2)cc1` [phenylether], the current response class is active: 1.

`CCOC(=O)C(C)O` (stereo not given) [ethyl lactate]: the current response class is inactive: 0.

Regarding `C=CC(O)CCCC` (stereo not given) [1-hepten-3-ol], the current response class was active: 1.
